Test results reported in patent US20210238308A1 (Chugai, published 2021).

T1: human TRIM21 PRYSPRY domain with N-terminal 6xHis tag (human)
T1 construct: Expressed from pET28a in E. coli; also called hTRIM21
T1 chain: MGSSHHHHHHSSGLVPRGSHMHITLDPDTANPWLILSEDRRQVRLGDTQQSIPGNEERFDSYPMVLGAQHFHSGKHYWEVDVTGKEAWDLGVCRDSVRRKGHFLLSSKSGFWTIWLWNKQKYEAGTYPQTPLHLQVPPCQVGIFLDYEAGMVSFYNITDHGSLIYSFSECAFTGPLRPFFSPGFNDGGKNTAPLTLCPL


Biological target: T1, human TRIM21 PRYSPRY domain with …
Assay: SPR, Ab captured on Protein L, hTRIM21 12.5-200 nM

| Kd [nM] | koff [s⁻¹] | kon [M⁻¹ s⁻¹] | Binder |
| --- | --- | --- | --- |
| 14.1 | 0.0389 | 2.75e+06 | 3D8VH-G1m/hT4VL-KT0.Avi D312H (antibody, human IgG1, kappa) heavy: EVQLVESGGGLVQPGGSLRLSCAASGYTFTSYVMHWVRQAPGKGLEWVSAINPYNDGNYYADSVKGRFTISRDNSRKTLYLQMNSLRAEDTAVYYCARGAYKRGYAMDYWGQGTTVTVSSASTKGPSVFPLAPSSKSTSGGTAALGCLVKDYFPEPVTVSWNSGALTSGVHTFPAVLQSSGLYSLSSVVTVPSSSLGTQTYICNVNHKPSNTKVDKKV[human IgG1 Fc with D312H (EU numbers) omitted here] light: [about 200 residues omitted here]GGGGSGLNDIFEAQKIEWHE |
| 4.12 | 0.00934 | 2.27e+06 | 3D8VH-G1m/hT4VL-KT0.Avi D312H.T437D (antibody, human IgG1, kappa) heavy: EVQLVESGGGLVQPGGSLRLSCAASGYTFTSYVMHWVRQAPGKGLEWVSAINPYNDGNYYADSVKGRFTISRDNSRKTLYLQMNSLRAEDTAVYYCARGAYKRGYAMDYWGQGTTVTVSSASTKGPSVFPLAPSSKSTSGGTAALGCLVKDYFPEPVTVSWNSGALTSGVHTFPAVLQSSGLYSLSSVVTVPSSSLGTQTYICNVNHKPSNTKVDKKV[human IgG1 Fc with D312H T437D (EU numbers) omitted here] light: [about 200 residues omitted here]GGGGSGLNDIFEAQKIEWHE |
| 1.87 | 0.00386 | 2.07e+06 | 3D8VH-G1m/hT4VL-KT0.Avi I253F.L432P (antibody, human IgG1, kappa) heavy: EVQLVESGGGLVQPGGSLRLSCAASGYTFTSYVMHWVRQAPGKGLEWVSAINPYNDGNYYADSVKGRFTISRDNSRKTLYLQMNSLRAEDTAVYYCARGAYKRGYAMDYWGQGTTVTVSSASTKGPSVFPLAPSSKSTSGGTAALGCLVKDYFPEPVTVSWNSGALTSGVHTFPAVLQSSGLYSLSSVVTVPSSSLGTQTYICNVNHKPSNTKVDKKV[human IgG1 Fc with I253F L432P (EU numbers) omitted here] light: [about 200 residues omitted here]GGGGSGLNDIFEAQKIEWHE |
| 6.2 | 0.00698 | 1.13e+06 | 3D8VH-G1m/hT4VL-KT0.Avi D312H.Y436T (antibody, human IgG1, kappa) heavy: EVQLVESGGGLVQPGGSLRLSCAASGYTFTSYVMHWVRQAPGKGLEWVSAINPYNDGNYYADSVKGRFTISRDNSRKTLYLQMNSLRAEDTAVYYCARGAYKRGYAMDYWGQGTTVTVSSASTKGPSVFPLAPSSKSTSGGTAALGCLVKDYFPEPVTVSWNSGALTSGVHTFPAVLQSSGLYSLSSVVTVPSSSLGTQTYICNVNHKPSNTKVDKKV[human IgG1 Fc with D312H Y436T (EU numbers) omitted here] light: [about 200 residues omitted here]GGGGSGLNDIFEAQKIEWHE |
| 2.7 | 0.00765 | 2.83e+06 | 3D8VH-G1m/hT4VL-KT0.Avi I253F (antibody, human IgG1, kappa) heavy: EVQLVESGGGLVQPGGSLRLSCAASGYTFTSYVMHWVRQAPGKGLEWVSAINPYNDGNYYADSVKGRFTISRDNSRKTLYLQMNSLRAEDTAVYYCARGAYKRGYAMDYWGQGTTVTVSSASTKGPSVFPLAPSSKSTSGGTAALGCLVKDYFPEPVTVSWNSGALTSGVHTFPAVLQSSGLYSLSSVVTVPSSSLGTQTYICNVNHKPSNTKVDKKV[human IgG1 Fc with I253F (EU numbers) omitted here] light: [about 200 residues omitted here]GGGGSGLNDIFEAQKIEWHE |
| 3.55 | 0.00741 | 2.09e+06 | 3D8VH-G1m/hT4VL-KT0.Avi D312H.Q438E (antibody, human IgG1, kappa) heavy: EVQLVESGGGLVQPGGSLRLSCAASGYTFTSYVMHWVRQAPGKGLEWVSAINPYNDGNYYADSVKGRFTISRDNSRKTLYLQMNSLRAEDTAVYYCARGAYKRGYAMDYWGQGTTVTVSSASTKGPSVFPLAPSSKSTSGGTAALGCLVKDYFPEPVTVSWNSGALTSGVHTFPAVLQSSGLYSLSSVVTVPSSSLGTQTYICNVNHKPSNTKVDKKV[human IgG1 Fc with D312H Q438E (EU numbers) omitted here] light: [about 200 residues omitted here]GGGGSGLNDIFEAQKIEWHE |
| 3.71 | 0.00747 | 2.01e+06 | 3D8VH-G1m/hT4VL-KT0.Avi D312H.M428F (antibody, human IgG1, kappa) heavy: EVQLVESGGGLVQPGGSLRLSCAASGYTFTSYVMHWVRQAPGKGLEWVSAINPYNDGNYYADSVKGRFTISRDNSRKTLYLQMNSLRAEDTAVYYCARGAYKRGYAMDYWGQGTTVTVSSASTKGPSVFPLAPSSKSTSGGTAALGCLVKDYFPEPVTVSWNSGALTSGVHTFPAVLQSSGLYSLSSVVTVPSSSLGTQTYICNVNHKPSNTKVDKKV[human IgG1 Fc with D312H M428F (EU numbers) omitted here] light: [about 200 residues omitted here]GGGGSGLNDIFEAQKIEWHE |
| 0.682 | 0.00197 | 2.9e+06 | 3D8VH-G1m/hT4VL-KT0.Avi I253F.Q438E (antibody, human IgG1, kappa) heavy: EVQLVESGGGLVQPGGSLRLSCAASGYTFTSYVMHWVRQAPGKGLEWVSAINPYNDGNYYADSVKGRFTISRDNSRKTLYLQMNSLRAEDTAVYYCARGAYKRGYAMDYWGQGTTVTVSSASTKGPSVFPLAPSSKSTSGGTAALGCLVKDYFPEPVTVSWNSGALTSGVHTFPAVLQSSGLYSLSSVVTVPSSSLGTQTYICNVNHKPSNTKVDKKV[human IgG1 Fc with I253F Q438E (EU numbers) omitted here] light: [about 200 residues omitted here]GGGGSGLNDIFEAQKIEWHE |
| 0.803 | 0.00174 | 2.17e+06 | 3D8VH-G1m/hT4VL-KT0.Avi I253F.N315M (antibody, human IgG1, kappa) heavy: EVQLVESGGGLVQPGGSLRLSCAASGYTFTSYVMHWVRQAPGKGLEWVSAINPYNDGNYYADSVKGRFTISRDNSRKTLYLQMNSLRAEDTAVYYCARGAYKRGYAMDYWGQGTTVTVSSASTKGPSVFPLAPSSKSTSGGTAALGCLVKDYFPEPVTVSWNSGALTSGVHTFPAVLQSSGLYSLSSVVTVPSSSLGTQTYICNVNHKPSNTKVDKKV[human IgG1 Fc with I253F N315M (EU numbers) omitted here] light: [about 200 residues omitted here]GGGGSGLNDIFEAQKIEWHE |
| 5.37 | 0.00982 | 1.83e+06 | 3D8VH-G1m/hT4VL-KT0.Avi D312H.L432P (antibody, human IgG1, kappa) heavy: EVQLVESGGGLVQPGGSLRLSCAASGYTFTSYVMHWVRQAPGKGLEWVSAINPYNDGNYYADSVKGRFTISRDNSRKTLYLQMNSLRAEDTAVYYCARGAYKRGYAMDYWGQGTTVTVSSASTKGPSVFPLAPSSKSTSGGTAALGCLVKDYFPEPVTVSWNSGALTSGVHTFPAVLQSSGLYSLSSVVTVPSSSLGTQTYICNVNHKPSNTKVDKKV[human IgG1 Fc with D312H L432P (EU numbers) omitted here] light: [about 200 residues omitted here]GGGGSGLNDIFEAQKIEWHE |
| 1.03 | 0.00224 | 2.17e+06 | 3D8VH-G1m/hT4VL-KT0.Avi I253F.N315Q (antibody, human IgG1, kappa) heavy: EVQLVESGGGLVQPGGSLRLSCAASGYTFTSYVMHWVRQAPGKGLEWVSAINPYNDGNYYADSVKGRFTISRDNSRKTLYLQMNSLRAEDTAVYYCARGAYKRGYAMDYWGQGTTVTVSSASTKGPSVFPLAPSSKSTSGGTAALGCLVKDYFPEPVTVSWNSGALTSGVHTFPAVLQSSGLYSLSSVVTVPSSSLGTQTYICNVNHKPSNTKVDKKV[human IgG1 Fc with I253F N315Q (EU numbers) omitted here] light: [about 200 residues omitted here]GGGGSGLNDIFEAQKIEWHE |
| 0.844 | 0.00192 | 2.28e+06 | 3D8VH-G1m/hT4VL-KT0.Avi I253F.T437D (antibody, human IgG1, kappa) heavy: EVQLVESGGGLVQPGGSLRLSCAASGYTFTSYVMHWVRQAPGKGLEWVSAINPYNDGNYYADSVKGRFTISRDNSRKTLYLQMNSLRAEDTAVYYCARGAYKRGYAMDYWGQGTTVTVSSASTKGPSVFPLAPSSKSTSGGTAALGCLVKDYFPEPVTVSWNSGALTSGVHTFPAVLQSSGLYSLSSVVTVPSSSLGTQTYICNVNHKPSNTKVDKKV[human IgG1 Fc with I253F T437D (EU numbers) omitted here] light: [about 200 residues omitted here]GGGGSGLNDIFEAQKIEWHE |
| 0.553 | 0.00117 | 2.11e+06 | 3D8VH-G1m/hT4VL-KT0.Avi I253F.M428F (antibody, human IgG1, kappa) heavy: EVQLVESGGGLVQPGGSLRLSCAASGYTFTSYVMHWVRQAPGKGLEWVSAINPYNDGNYYADSVKGRFTISRDNSRKTLYLQMNSLRAEDTAVYYCARGAYKRGYAMDYWGQGTTVTVSSASTKGPSVFPLAPSSKSTSGGTAALGCLVKDYFPEPVTVSWNSGALTSGVHTFPAVLQSSGLYSLSSVVTVPSSSLGTQTYICNVNHKPSNTKVDKKV[human IgG1 Fc with I253F M428F (EU numbers) omitted here] light: [about 200 residues omitted here]GGGGSGLNDIFEAQKIEWHE |
| 1.55 | 0.00227 | 1.47e+06 | 3D8VH-G1m/hT4VL-KT0.Avi I253F.Y436T (antibody, human IgG1, kappa) heavy: EVQLVESGGGLVQPGGSLRLSCAASGYTFTSYVMHWVRQAPGKGLEWVSAINPYNDGNYYADSVKGRFTISRDNSRKTLYLQMNSLRAEDTAVYYCARGAYKRGYAMDYWGQGTTVTVSSASTKGPSVFPLAPSSKSTSGGTAALGCLVKDYFPEPVTVSWNSGALTSGVHTFPAVLQSSGLYSLSSVVTVPSSSLGTQTYICNVNHKPSNTKVDKKV[human IgG1 Fc with I253F Y436T (EU numbers) omitted here] light: [about 200 residues omitted here]GGGGSGLNDIFEAQKIEWHE |
| 1.17 | 0.00242 | 2.06e+06 | 3D8VH-G1m/hT4VL-KT0.Avi I253F.D312H (antibody, human IgG1, kappa) heavy: EVQLVESGGGLVQPGGSLRLSCAASGYTFTSYVMHWVRQAPGKGLEWVSAINPYNDGNYYADSVKGRFTISRDNSRKTLYLQMNSLRAEDTAVYYCARGAYKRGYAMDYWGQGTTVTVSSASTKGPSVFPLAPSSKSTSGGTAALGCLVKDYFPEPVTVSWNSGALTSGVHTFPAVLQSSGLYSLSSVVTVPSSSLGTQTYICNVNHKPSNTKVDKKV[human IgG1 Fc with I253F D312H (EU numbers) omitted here] light: [about 200 residues omitted here]GGGGSGLNDIFEAQKIEWHE |
